PubChem BioAssay AID2451 (National Center for Advancing Translational Sciences (NCATS), 2010)
Screen size: about 290,000 compounds; about 2,100 (0.72%) were called active. Inconclusive results, whose numbers are uncertain, are shown with a selection of clear calls. Calls come from the whole dose curve; as a rule, active = well fitted inhibition curve with a large enough effect; inconclusive = small, poorly fitted or top-dose-only effect, or effect the other way; inactive = flat fitted curve, though single readings scatter. Where the call is inconclusive, the potency comes from a doubtful curve fit.
Note: nearly all actives have a fitted effect of over 55% in size.
Potency is the fitted concentration of half-maximal effect; tags give direction and shape of the fitted curve.

What follows are compounds tested against Fructose-bisphosphate aldolase (Giardia intestinalis (strain ATCC 50803 / WB clone C6)) (UniProt A8B2U2) (assay: qHTS Assay for Inhibitors of Fructose-1,6-bisphosphate Aldolase from Giardia Lamblia). Details: purified Giardia FBPA; series mostly up to 59.6 µM.
Sequence of UniProt A8B2U2 (A8B2U2 whole entry, looked up): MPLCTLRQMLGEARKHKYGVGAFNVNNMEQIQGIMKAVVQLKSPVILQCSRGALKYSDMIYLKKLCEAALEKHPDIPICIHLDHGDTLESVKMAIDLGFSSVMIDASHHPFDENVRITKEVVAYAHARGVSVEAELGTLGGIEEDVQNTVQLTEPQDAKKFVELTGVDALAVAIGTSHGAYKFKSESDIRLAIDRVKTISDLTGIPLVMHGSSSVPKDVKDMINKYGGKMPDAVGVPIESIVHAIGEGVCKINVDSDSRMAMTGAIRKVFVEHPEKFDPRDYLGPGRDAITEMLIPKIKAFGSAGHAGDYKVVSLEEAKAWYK
Summary of the method: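 Giardia FBPA (40 nM reagent) was preincubated 10 min at RT with compound (up to 57.5 uM final), then substrate plus GAPDH/TPI/NAD/arsenate coupling system with diaphorase/resazurin was added; resorufin fluorescence (525/598 nm) was read after 20 min.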
For `Cc1ccc(C2NC(=O)c3c(sc4c3CCN(C)C4)N2)o1` (centres undefined), the Potency was inconclusive: 15.8 µM [inhibitor, partial curve].
`COc1ccc(CN2CCCN(C)CC2)c(OC)c1C` was tested, and the Potency was inconclusive: 17.8 µM [inhibitor, partial curve].
For `CCN(CC)Cc1oc(-c2ccccc2)cc1C(=O)O`, the Potency was “inactive”.
For `O=C1NC(C(=O)O)=CC(c2ccc([N+](=O)[O-])cc2)N1` (centres undefined), the Potency was active: 17.7 µM.
For `Nc1ccc(C(=O)OCc2nc3c(ccc4ccccc43)[nH]2)cc1`, the Potency was “inactive”.
For `Cc1ccc(N2C(=O)[C@@H]3[C@H](C2=O)[C@H]2C=CC=NN2[C@@H]3C(=O)Nc2ccccc2)cc1`, the Potency was inconclusive: 15.8 µM [inhibitor, partial curve].
With `O=C(Nc1nnc(S(=O)(=O)N2CCN(c3ccc(F)cc3)CC2)s1)c1ccccc1` the Potency was “inactive”.
In the case of `O=C(O)CC(C(=O)O)N1C(=O)/C(=C/C=C/c2ccco2)SC1=S` (centres undefined), the Potency is reported as inconclusive: 14.1 µM [inhibitor, partial curve].
`CCOC(=O)[C@@]1(C#N)[C@@H]2C=CC(C(N)=O)=CN2[C@@H](C(N)=O)[C@@H]1c1cccc(Cl)c1` was tested, and the Potency was inconclusive: 17.7 µM [inhibitor, single point].
With `COC(=O)c1ccc(OCCN2CCCCCC2)cc1` the Potency was inconclusive: 17.7 µM [inhibitor, partial curve].
With `CC(=O)c1cc2c(cc1NC(=O)CN1CCCCC1C)OCO2` (centres undefined) the Potency was inconclusive: 15.8 µM [inhibitor, single point].
With `OCCN(Cc1ccccc1)Cc1ccc(Cl)cc1Cl` the Potency was inconclusive: 17.7 µM [inhibitor, partial curve].
With `Cc1ccc(S(=O)(=O)Nc2cc(-c3ccccc3)nn2C)cc1Cl` the Potency was inconclusive: 14.1 µM [activator, partial curve].
With `COCCNC(=O)C(=O)NNC(=O)c1ccccc1OC` the Potency was inconclusive: 19.9 µM [inhibitor, single point].
With `COc1cc2[nH]c3c(N4CCN(c5ccc(Cl)cc5)CC4)ncnc3c2cc1OC` the Potency was “inactive”.
With `COc1cc2c(cc1OC)CC(=O)NC=C2` the Potency was inconclusive: 44.6 µM [inhibitor, single point].
`COc1ccccc1NC(=O)c1ccc2c(c1)N(CC(=O)NC(C)(C)C)C(=O)C(C)(C)O2` was tested, and the Potency was inconclusive: 17.8 µM [inhibitor, single point].
For `CC(C)CC1C(=O)N2CCCC2C2(O)O[C@@](NC(=O)C3C=C4c5cccc6[nH]c(Br)c(c56)CC4N(C)C3)(C(C)C)C(=O)N12` (some centres undefined), the Potency was inconclusive: 15.8 µM [inhibitor, single point].
For `CCCn1c(=N)c(C(=O)NC2CCCC2)cc2c(=O)n3cccc(C)c3nc21`, the Potency was “inactive”.
For `N#CCSc1nnc(-c2ccc3c(c2)OCO3)o1`, the Potency was “inactive”.
For `NC(=S)N/N=C/c1ccccc1`, the Potency was inconclusive: 17.7 µM [inhibitor, single point].
With `CCCCn1c(SCC(=O)NCCOC)nc2ccc(N3CCOCC3)cc2c1=O` the Potency was inconclusive: 2.51 µM [inhibitor, full curve].
With `Cc1cccc(Cl)c1OCCCN1CCOCC1` the Potency was inconclusive: 15.8 µM [inhibitor, partial curve].
With `CCC(C)NCCOCCOc1ccc(Cl)c2ccccc12` (centres undefined) the Potency was inconclusive: 17.7 µM [inhibitor, partial curve].
With `Cc1ccccc1-c1nnn(Cc2ccc(F)cc2Cl)n1` the Potency was “inactive”.
In the case of `CCC(=O)Nc1ccc(N2CCCCC2)cc1`, the Potency is reported as “inactive”.
For `CCN(CC)CCCN1C=C2C(=O)C(C)(OC(=O)CCC(=O)OC)C(=O)C=C2C=C1C1CC1` (centres undefined), the Potency was inconclusive: 0.281 µM [inhibitor, full curve].
For `COC(=O)[C@H](COC(C)(C)C)NC(=O)O[C@@H]1C(=O)c2cc(Br)ccc2O[C@H]1c1ccc2c(c1)OCO2`, the Potency was “inactive”.
In the case of `CCOc1cccc2oc(-c3ccccc3Cl)cc(=O)c12`, the Potency is reported as “inactive”.
In the case of `CC(=O)NC1=C(NC2CCS(=O)(=O)C2)C(=O)c2ccccc2C1=O` (centres undefined), the Potency is reported as inconclusive: 17.7 µM [inhibitor, partial curve].
For `COc1ccc(-n2c(CNc3ccc(C)cc3)nnc2SCc2ccccc2)cc1`, the Potency was inconclusive: 15.8 µM [inhibitor, single point].
`Cc1ccc(S(=O)(=O)N(CC(=O)N2CCC(C)CC2)Cc2ccccc2F)cc1` was tested, and the Potency was inconclusive: 15.8 µM [inhibitor, partial curve].
With `O=C(CSc1ccc(-c2ccccn2)nn1)N1CCc2ccccc21` the Potency was inconclusive: 35.4 µM [inhibitor, single point].
For `C=CCn1c(C(CC)CC(C)(C)O)n[nH]c1=S` (centres undefined), the Potency was inconclusive: 3.54 µM [inhibitor, full curve].
`C=CCn1c(CSc2ccc(C)cc2)n[nH]c1=S` was tested, and the Potency was inconclusive: 7.08 µM [inhibitor, partial curve].
In the case of `O=c1c(-c2ccc(O)cc2)coc2cc(O)cc(O)c12`, the Potency is reported as “inactive”.
With `CCCCC(=O)NC(c1ccc([N+](=O)[O-])cc1)c1c(O)ccc2ccccc12` (centres undefined) the Potency was inconclusive: 14.1 µM [inhibitor, partial curve].
`Nc1cc2nsnc2cc1Br` was tested, and the Potency was inconclusive: 19.9 µM [inhibitor, partial curve].
In the case of `Cc1nn(-c2ccccc2)c(C)c1C(=O)OC/C(O)=C(\C#N)c1nc2ccccc2[nH]1`, the Potency is reported as inconclusive: 17.7 µM [activator, partial curve].
For `CC(C)[C@@H]1NC(=O)c2cc([N+](=O)[O-])cc(I)c2OCC[C@@H](C(N)=O)NC(=O)[C@H](CCC(=O)O)NC1=O`, the Potency was inconclusive: 17.7 µM [activator, partial curve].
For `CCOC(=O)c1c(CSc2ccc(C)cc2)n(C)c2cc(Br)c(O)c(CN(C)C)c12`, the Potency was “inactive”.
For `COc1ccc(CN2CCN(C(=O)c3cccnc3)CC2)cc1Br`, the Potency was inconclusive: 22.4 µM [inhibitor, single point].
For `O=c1cc(-c2cccc(O)c2O)oc2ccccc12`, the Potency was inconclusive: 15.8 µM [inhibitor, partial curve].
In the case of `Nc1c(O)ccc2c1C(=O)c1ccccc1C2=O`, the Potency is reported as inconclusive: 15.8 µM [inhibitor, single point].
